# Measured values taken from the supplement of paper PMC3334620.
# In all, about 33,000 sequences were measured (“E-score (-0.5 to 0.5)”: median about -0.032, highest 2% from about 0.36 on). The list shows a part of the results.
# Target: T1, Sko1 (UniProt Q02100)
# T1 sequence: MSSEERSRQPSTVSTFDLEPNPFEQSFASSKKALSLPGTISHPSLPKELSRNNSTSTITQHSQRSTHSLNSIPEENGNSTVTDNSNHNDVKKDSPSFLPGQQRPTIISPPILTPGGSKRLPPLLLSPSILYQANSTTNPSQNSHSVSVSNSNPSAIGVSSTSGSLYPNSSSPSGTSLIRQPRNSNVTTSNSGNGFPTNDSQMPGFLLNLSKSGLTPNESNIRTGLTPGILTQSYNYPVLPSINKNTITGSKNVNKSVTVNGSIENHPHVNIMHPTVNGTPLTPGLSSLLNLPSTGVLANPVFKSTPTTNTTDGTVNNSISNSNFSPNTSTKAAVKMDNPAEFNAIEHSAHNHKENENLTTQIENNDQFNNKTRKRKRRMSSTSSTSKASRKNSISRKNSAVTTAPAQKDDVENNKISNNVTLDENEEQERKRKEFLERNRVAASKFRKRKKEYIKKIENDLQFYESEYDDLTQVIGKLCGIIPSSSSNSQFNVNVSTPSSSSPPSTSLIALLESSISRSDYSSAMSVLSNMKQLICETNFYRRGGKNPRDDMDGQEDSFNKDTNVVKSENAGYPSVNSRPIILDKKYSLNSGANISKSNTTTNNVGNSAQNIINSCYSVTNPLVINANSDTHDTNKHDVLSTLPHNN
# Assay: PBM E-score (8-mer binding enrichment) (E-score (-0.5 to 0.5)); higher = stronger / more preferred TF binding; most listed sequences are background and not binding sites
# Conditions: protein concentration: 200 nM; construct: GST-full length
# Outline: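 Using PURExpress in vitro transcription/translation, GST-tagged yeast transcription factors were made in full-length or DNA-binding-domain form. These were applied at about 100-200 nM to double-stranded universal all-10-mer Agilent arrays, and bound protein was detected with fluorescent anti-GST. Scans were normalised with masliner before the Universal PBM Analysis Suite assigned E-scores to ungapped eight-base words pooled with their reverse complements.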
row,Sequence,PBM E-score
1,CATGTGCA,0.0248
2,ACGGAGGG,-0.24
3,CCTGTACA,-0.0613
4,AACGGCTC,-0.0851
5,AGCTGTCA,0.0211
6,CTCCACTC,-0.27
7,CGCCTTAG,-0.113
8,AACGCCCA,-0.0022
9,CAGAAACC,-0.101
10,CGTTCGGA,-0.163
11,CACAGGGA,-0.221
12,CAAGGCTG,-0.229
13,GGCAGTCA,-0.136
14,CGTGCGTC,0.388
15,CATTCACC,-0.0121
16,AACGTACA,0.303
17,CGGCCGGC,-0.313
18,GGTAACTA,0.0515
19,CAGGAAAG,-0.158
20,CCTAAAAG,-0.163
21,ACGCGTGA,0.32
22,ACTGTGGC,-0.239
23,CGTTGATC,0.152
24,AAAGATGT,0.119

row,Sequence,PBM E-score
1,CCTAGCCC,-0.221
2,GAGGAGCC,-0.21
3,CACAGGCA,0.00128
4,AACGGAGA,-0.108
5,ATATCGCG,0.12
6,ACTCCAGG,-0.0919
7,GCTAGTAA,-0.00339
8,CAATCTAA,0.0428
9,AGTGTATA,0.165
10,GAGTTCGC,-0.23
11,CGCGTGAG,0.224
12,AGCGAGCT,0.114
13,AGGTTCAC,-0.0397
14,GACCGGTA,-0.351
15,AAACTACT,0.0951
16,AAAAGCAT,-0.00843
17,AATTCCGC,-0.0973
18,GATTCAAC,0.0452
19,GTGCGGAA,0.0182
20,ATGACCAC,0.0672
21,GGACCATA,-0.148
22,CAGTCTGC,-0.155
23,AGGGACAC,-0.0953
24,GGGGCTTA,-0.302

row,Sequence,PBM E-score
1,ACTTCACG,0.0936
2,ACGATAGC,0.221
3,AAACACCG,-0.0565
4,AGCGACGC,-0.0658
5,ACTTTAGA,0.00666
6,ACGCATTC,0.229
7,CACAGATA,-0.0967
8,GGATCACC,-0.181
9,CTTAATTC,0.0412
10,GACAGCGA,-0.178
11,ACCTATTG,-0.00471
12,GGAATCCC,-0.266
13,GGTTATTA,0.177
14,ATCACCCA,0.0215
15,GTACGACA,0.326
16,AGCACCCG,-0.105
17,GCGGCTCC,-0.379
18,ACGAATAT,0.316
19,CGCTTAGC,-0.251
20,CCGTGGCA,-0.24
21,AGCTCTAT,-0.12
22,AGGTAAAC,0.172
23,CATATCCG,0.0206
24,GAATCCAC,0.0158

row,Sequence,PBM E-score
1,CGTGCAAG,0.0462
2,CAACGTGC,0.141
3,ATATAGCG,0.168
4,CTCCGTCC,-0.263
5,AGCACCAT,-0.293
6,GTGGAAAC,0.0657
7,CATAAACA,0.287
8,ACAGGTCT,-0.16
9,GAGTACAC,0.0088
10,CTAGGTTA,-0.0237
11,CGTTTAGC,0.231
12,AAATTGAG,-0.0473
13,ATTAGCGG,-0.14
14,ATAACCGC,-0.0457
15,AACCCTTG,-0.205
16,ATCAGGCG,-0.0176
17,AATGCACA,0.0421
18,AGCTAATA,0.136
19,CATCGGAA,0.153
20,CGAATGCC,-0.201
21,CCTCATCG,-0.0839
22,GAGGTAGA,-0.155
